{"source": "PubChem BioAssay AID1956", "about": "(SRMLSC, 2009)", "note": "About 10 (0.005%) of roughly 220,000 compounds were called active. Inconclusive results, whose numbers are uncertain, are shown with a selection of clear calls. Cut-off read from the data, not from the text of the source: active = maximum fold increase above about 1.5; inconclusive = no clear call, values can overlap the other calls; inactive = below that; tested in PC3 cells."}
{"assay": "compounds boosting herpes simplex virus growth – fold increase, host cell viability (AID 1956)", "conditions": "HSV replication augmentation in cells; at 25 µM unless noted"}
{"smiles": "Cc1cc(C)cc(NC(=O)Cn2c(-c3ccccc3Cl)nc3ccccc32)c1", "maximum fold increase": "inactive"}
{"smiles": "CN(C)c1ccc2c3c(cccc13)C(=O)N(c1ccccc1)C2=O", "maximum fold increase": "inconclusive"}
{"smiles": "O=C(Oc1ccccc1O)c1cccc2ccccc12", "maximum fold increase": "inactive"}
{"smiles": "COc1ccc(CCNc2nc(-c3sc(N)nc3C)cs2)cc1OC", "maximum fold increase": "inconclusive"}
{"smiles": "C=CC(=O)N=c1sc2ccccc2n1-c1ccccc1", "maximum fold increase": "inactive"}
{"smiles": "CCc1cccc(CC)c1-n1c(-c2cccnc2)n[nH]c1=S", "maximum fold increase": "inconclusive"}
{"smiles": "Cc1cc(C)c(C#N)c(SCc2nc3ccccc3c(=O)[nH]2)n1", "maximum fold increase": "inactive"}
{"smiles": "CCNc1nc(-c2ccc(OC(F)F)cc2)c(C)s1", "maximum fold increase": "inactive"}
{"smiles": "COc1cccc(C2NC(=O)N(CCCC(=O)O)C(C)=C2C(=O)OCc2ccccc2)c1", "note": "(stereo not given)", "maximum fold increase": "inactive"}
{"smiles": "O=c1c(O)c(-c2cccs2)oc2ccc(Cl)cc12", "maximum fold increase": "inconclusive"}
{"smiles": "O=c1c(O)cccc2cc(O)c(O)c(O)c12", "maximum fold increase": "inconclusive"}
{"smiles": "CCOC(=O)c1ccc(NC(=O)CSC(=S)N2CCOCC2)cc1", "maximum fold increase": "inactive"}
{"smiles": "CN1C(=O)C(N=Nc2ccccc2C(=O)O)N(C)C1=S", "note": "(stereo not given)", "maximum fold increase": "inconclusive"}
{"smiles": "COc1ccccc1C1C=C(c2ccc(Cl)cc2)Nc2nc(NS(C)(=O)=O)nn21", "note": "(stereo not given)", "maximum fold increase": "inconclusive"}
{"smiles": "c1ccc(Nc2ccnc(Nc3ccccc3)n2)cc1", "maximum fold increase": "inactive"}
{"smiles": "CCOc1cc(/C=C2\\SC(=S)N(NC(=O)c3cccnc3)C2=O)ccc1O", "maximum fold increase": "inconclusive"}
{"smiles": "O=C1/C(=C/C=C/c2ccccc2)Oc2c1ccc(O)c2CN1CCN(CCO)CC1", "maximum fold increase": "inconclusive"}
{"smiles": "COc1ccc(NC(=O)c2sc3nc(-c4cccnc4)ccc3c2N)cc1OC", "maximum fold increase": "inconclusive"}
{"smiles": "N#CC(=C=[N-])c1nc2ccccc2nc1-[n+]1ccccc1", "maximum fold increase": "inconclusive"}
{"smiles": "Cc1cc(C)c[n+](-c2[nH]c(=O)sc2/C=N/NC([S-])=Nc2ccccc2)c1", "maximum fold increase": "inconclusive"}
{"smiles": "Cc1cc2c(c(=O)o1)C(CC(C)C)C(C#N)=C(N)O2", "note": "(stereo not given)", "maximum fold increase": "inconclusive"}
{"smiles": "CCOc1ccc(N=C2NC(=O)S/C2=C\\c2ccc(O)cc2)cc1", "maximum fold increase": "inconclusive"}
{"smiles": "CSc1nsc(/C=C/Nc2ccc(F)cc2F)c1C#N", "maximum fold increase": "inconclusive"}
{"smiles": "N#Cc1c(NC(=O)CSc2nc(N)cc(=O)[nH]2)sc2c1CCCCCC2", "maximum fold increase": "inactive"}
{"smiles": "Cc1cc(=O)oc(C)c1C(=O)Nc1ccc2ncccc2c1", "maximum fold increase": "inconclusive"}
{"smiles": "CCOC(=O)C1=C(C)N=c2s/c(=C\\c3cccn3C)c(=O)n2C1c1cccc(OC)c1OC", "note": "(stereo not given)", "maximum fold increase": "inconclusive"}
{"smiles": "CCCCOCCCn1c(-c2ccco2)nc2nc3ccccc3nc21", "maximum fold increase": "inconclusive"}
{"smiles": "CCN(CC)C(=O)c1ccc2c(c1[N+](=O)[O-])C(=O)c1ccccc1C2=O", "maximum fold increase": "inconclusive"}
{"smiles": "O=C1NC(=Nc2cccnc2)S/C1=C\\c1cccc(F)c1", "maximum fold increase": "inconclusive"}
{"smiles": "CCOC(=O)Cc1cc(=O)n(-c2nc3ccccc3s2)[nH]1", "maximum fold increase": "inconclusive"}
{"smiles": "O=C(Nc1nonc1NC(=O)c1cccs1)c1cccs1", "maximum fold increase": "inactive"}
{"smiles": "N#C/C(C(N)=O)=C1/SC(Cc2ccc(F)cc2)C(=O)N1c1ccccc1", "note": "(stereo not given)", "maximum fold increase": "inconclusive"}
{"smiles": "COc1ccccc1/C=C/C=C1\\Oc2c(ccc(O)c2CN2CCN(CCO)CC2)C1=O", "maximum fold increase": "inconclusive"}
{"smiles": "COc1ccc(CNC(=O)CSc2nc3[nH]ncc3c(=O)n2-c2ccccc2Br)cc1", "maximum fold increase": "inactive"}
{"smiles": "C=CCc1c(C)nc(-c2ccccc2)nc1Nc1ccccc1O", "maximum fold increase": "inconclusive"}
{"smiles": "OCC1(CCOc2ccccc2)CCN(Cc2ccc3cccc(F)c3n2)CC1", "maximum fold increase": "inactive"}
{"smiles": "CCOc1cc(/C=C2/NC(=O)N(CC(=O)Nc3cccc(C)c3)C2=O)ccc1OC", "maximum fold increase": "inconclusive"}
{"smiles": "CCS(=O)(=O)C1=NN2C(=N)/C(=C\\c3ccc(SCc4ccco4)o3)C(=O)N=C2S1", "maximum fold increase": "inconclusive"}
{"smiles": "COc1ccc(-c2nn(-c3ccccc3)cc2C(=O)Nc2nc(CC(C)=O)ns2)cc1", "maximum fold increase": "inconclusive"}
{"smiles": "CC(C)OC(=O)c1c(NS(=O)(=O)c2ccccc2)sc2c1CCCC2", "maximum fold increase": "inconclusive"}
{"smiles": "c1csc(-c2nnsc2-c2nc3ccccc3[nH]2)c1", "maximum fold increase": "inconclusive"}
{"smiles": "CCCCCCn1c(=O)[nH]c2nc3cc(N)ccc3nc2c1=O", "maximum fold increase": "inconclusive"}
{"smiles": "COc1cc(/C=C2\\SC(=Nc3c(C)n(C)n(-c4ccccc4)c3=O)NC2=O)ccc1O", "maximum fold increase": "inconclusive"}
{"smiles": "N#CC1=C(N)Oc2c(oc(CO)cc2=O)C1c1cccs1", "note": "(stereo not given)", "maximum fold increase": "inconclusive"}
{"smiles": "CCCCC(CCC(=O)O)(C(=O)OCC)c1csc(Nc2ccc(C)cc2)n1", "note": "(stereo not given)", "maximum fold increase": "inactive"}
{"smiles": "Cc1nn(C)c(C)c1N1C(=O)c2cccc3c(Br)ccc(c23)C1=O", "maximum fold increase": "inconclusive"}
{"smiles": "COc1ccc2c3c([nH]c2c1)C1CC2C(CC(O)C(OC)C2C(=O)O)CN1CC3", "note": "(stereo not given)", "maximum fold increase": "inconclusive"}
{"smiles": "Cc1cc(C(=O)Nc2nc3c(C)cccc3s2)c(C)o1", "maximum fold increase": "inconclusive"}
{"smiles": "CCOC(=O)c1ccc2c(c1)nc(SCc1cn3ccsc3n1)n2CC", "maximum fold increase": "inactive"}
{"smiles": "Cc1c(-n2cc(C(=O)c3cc(F)ccc3O)cc(C#N)c2=O)c(=O)n(-c2ccccc2)n1C", "maximum fold increase": "inconclusive"}
{"smiles": "Cc1cc(=O)oc2cc(OC(=O)CCCCCN3C(=O)c4ccccc4C3=O)ccc12", "maximum fold increase": "inactive"}
{"smiles": "Cc1c(N=C2N=C(NC(=O)c3ccc(F)cc3)c3ccccc32)c(=O)n(-c2ccccc2)n1C", "maximum fold increase": "inconclusive"}
{"smiles": "CCCCN1C(=O)/C(=C/C=C2/CC(C)(C)CN2C)SC1=S", "maximum fold increase": "inconclusive"}
{"smiles": "O=C1c2ccccc2S(=O)(=O)c2cc(N3CCC4(CC3)OCCO4)ccc21", "maximum fold increase": "inconclusive"}
{"smiles": "O=C1C2C(C(=O)N1CCN1CCN(Cc3ccc([N+](=O)[O-])cc3)CC1)[C@H]1C=C[C@@H]2C1", "note": "(stereo not given in full)", "maximum fold increase": "inactive"}
{"smiles": "c1ccc(N2CCN(c3ccccc3)C2c2cccs2)cc1", "maximum fold increase": "inactive"}
{"smiles": "Cc1cccn2cc(-c3ccc(Cl)cc3)nc12", "maximum fold increase": "inactive"}
{"smiles": "CCCc1nc2oc3cc(OC)ccc3c(=O)c2c(=O)n1Cc1ccco1", "maximum fold increase": "inconclusive"}
{"smiles": "CCOC(=O)C1=C(CSc2nc(-c3ccccc3)ccc2C#N)OC(N)=C(C#N)C1c1cccnc1", "note": "(stereo not given)", "maximum fold increase": "inconclusive"}
{"smiles": "O=C(Cc1cccs1)NCCc1csc(-c2ccccc2)n1", "maximum fold increase": "inactive"}
{"smiles": "COC(=O)C1=C(C(=O)c2ccc(C)cc2)C(c2ccc(O)c(OC)c2)n2nnnc2N1", "note": "(stereo not given)", "maximum fold increase": "inconclusive"}
{"smiles": "CCN(CC)c1ccc(/C=C2\\SC(=O)N(C(C)C)C2=O)o1", "maximum fold increase": "inconclusive"}
{"smiles": "CCOC(=O)N1CCC(N2CCCC(CO)(Cc3cccc(Cl)c3)C2)CC1", "note": "(stereo not given)", "maximum fold increase": "inactive"}
{"smiles": "CC1CCCCN1S(=O)(=O)c1ccccc1[N+](=O)[O-]", "note": "(stereo not given)", "maximum fold increase": "inactive"}
{"smiles": "c1ccc(N2CCN(c3nc4ccccc4n4nnnc34)CC2)cc1", "maximum fold increase": "inconclusive"}
